{
  "source": "PubChem BioAssay AID2546",
  "about": "(National Center for Advancing Translational Sciences (NCATS), 2010)",
  "note": "In all, about 310,000 compounds went through this assay and about 11,000 (3.5%) were called active. This list was built around the results that the source calls inconclusive (neither active nor inactive); the mix of calls is not that of the screen. Calls come from the whole dose curve; as a rule, active = well fitted inhibition curve with a large enough effect; inconclusive = small, poorly fitted or top-dose-only effect, or effect the other way; inactive = flat fitted curve, though single readings scatter. No potency is given beside an inconclusive call; the fits are too rough. % is set by controls: 0 for no effect and ±100 for the full control effect; potency is the fitted concentration of half-maximal effect; tags give direction and shape of the fitted curve.",
  "data": [
    {"assay": "VP16 counterscreen qHTS for inhibitors of ROR gamma transcriptional activity;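 note: Gal4-VP16 expression switched on by copper sulfate through the metallothionein promoter; nearly all actives have a fitted effect of over 50% in size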", "details": "Drosophila S2 Gal4-VP16 UAS-luciferase, luminescence, 20 h; activity, negative = inhibition: at 53.6 µM (top of the series)", "values": [
      {"smiles": "Cc1ccn2cc(-c3cnoc3C)nc2c1", "activity, negative = inhibition": "inactive: 2.44%"},
      {"smiles": "Cc1ccc(CNC(=O)c2cn(C3CCCCC3)c(=O)c3c2c2ccccc2n3C)o1", "activity, negative = inhibition": "inactive: 19%"},
      {"smiles": "COC(=O)c1c(NC(C)=O)sc(C(=O)Nc2ccccc2)c1C", "Potency": "inconclusive [activator, partial curve]"},
      {"smiles": "COC(=O)c1c(C(=O)OC)c(-c2ccc(Cl)cc2)n2c1CS(=O)(=O)C2", "activity, negative = inhibition": "inactive: -1.57%"},
      {"smiles": "CCCCN1Cc2cc(C(=O)c3cc(F)ccc3O)cnc2NC1=O", "activity, negative = inhibition": "inactive: 5.41%"},
      {"smiles": "CS(=O)(=O)N1N=C(c2ccc(Br)cc2)CC1c1ccc2c(c1)OCO2", "note": "(centres undefined)", "Potency": "inconclusive [inhibitor, single point]"},
      {"smiles": "COc1cccc(NC(=O)Nc2ccc(Cc3ccncc3)cc2)c1", "Potency": "inconclusive [activator, single point]"},
      {"smiles": "C/C(=N\\NC(=O)CCCNc1ccc(C)cc1)c1ccccn1", "Potency": "active: 12.6 µM"},
      {"smiles": "Cc1cc(C)nc(NN=C(c2ccccc2)c2ccccc2)n1", "Potency": "inconclusive [inhibitor, single point]"},
      {"smiles": "O=c1c(O)c(-c2ccccc2)oc2ccccc12", "Potency": "active: 7.08 µM"},
      {"smiles": "CC(=O)NC(CC(=O)Nc1ccc(S(=O)(=O)N2CCCCC2)cc1)c1ccccc1", "note": "(centres undefined)", "Potency": "inconclusive [inhibitor, single point]"},
      {"smiles": "COc1ccc(C(=O)CC(=O)C(=O)Nc2ccccc2)cc1", "Potency": "inconclusive [inhibitor, single point]"},
      {"smiles": "CCc1ccc(/C=N/NC(=O)c2cc(C3CC3)nc3ccccc23)s1", "Potency": "active: 1.78 µM"},
      {"smiles": "Cc1[nH]nc(-c2ccc(O)cc2O)c1-c1ccc(Cl)cc1", "Potency": "active: 22.4 µM"},
      {"smiles": "CCOc1c(C(N)=O)cc([N+](=O)[O-])cc1[N+](=O)[O-]", "Potency": "inconclusive [activator, single point]"},
      {"smiles": "COc1ccccc1/C=C/C1(C(=O)NC2CCCC2)CC(=O)N1c1ccccc1", "note": "(centres undefined)", "activity, negative = inhibition": "inactive: -9.69%"},
      {"smiles": "COc1cccc2[nH]c(C(=O)NCCc3ccccc3)cc12", "Potency": "inconclusive [activator, partial curve]"},
      {"smiles": "Cc1c(CC(=O)NCCCC(=O)O)c(=O)oc2cc3c(cc12)CCC(C)(C)O3", "Potency": "active: 7.08 µM"},
      {"smiles": "Cc1nn(C)c(Oc2ccccc2)c1CCNC(=O)CCl", "Potency": "inconclusive [activator, single point]"},
      {"smiles": "CS(=O)(=O)c1ccccc1-c1nc(-c2ccc(C(F)(F)F)cc2)no1", "Potency": "inconclusive [inhibitor, single point]"},
      {"smiles": "CC(C)N=c1scc(-c2cccs2)n1/N=C/c1ccc(O)c(O)c1O", "Potency": "inconclusive [inhibitor, single point]"},
      {"smiles": "CC(=O)NCCNC(=O)c1ccc(-n2c(C)ccc2C)cc1", "Potency": "inconclusive [activator, single point]"},
      {"smiles": "CCC(=O)Nc1cccc(NC(=S)NC(=O)c2ccc(Cl)cc2Cl)c1", "Potency": "inconclusive [inhibitor, single point]"},
      {"smiles": "CCOc1ccc(OCc2ccc(C(=O)N(CC)CC)cc2)cc1", "Potency": "inconclusive [inhibitor, single point]"},
      {"smiles": "COc1ccccc1-c1cn[nH]c1-c1ccc(OCc2ccccc2F)cc1O", "Potency": "inconclusive [inhibitor, single point]"},
      {"smiles": "O=C(CSc1nc2ccccc2n1CCc1ccccc1)NC1CCS(=O)(=O)C1", "note": "(centres undefined)", "Potency": "inconclusive [inhibitor, single point]"},
      {"smiles": "O=[N+]([O-])c1ccc(/C=C/c2ccc3cccc(O)c3n2)cc1", "Potency": "inconclusive [inhibitor, single point]"},
      {"smiles": "COc1ccc(N2CCN(c3ncnc4scc(-c5ccccc5)c34)CC2)cc1", "activity, negative = inhibition": "inactive: 1.12%"},
      {"smiles": "CCn1nnnc1NCc1c(OC)ccc2ccccc12", "activity, negative = inhibition": "inactive: 3.55%"},
      {"smiles": "Brc1ccc(-c2noc(-c3ccccn3)n2)o1", "Potency": "inconclusive [inhibitor, single point]"},
      {"smiles": "CCOc1ccc2[nH]c(=O)c(CN(Cc3ccccc3OC)C(=O)c3ccccc3)cc2c1", "activity, negative = inhibition": "inactive: -6.33%"},
      {"smiles": "COc1ccc(C2c3c(ncn(Cc4ccco4)c3=N)Oc3ccc4ccccc4c32)cc1", "note": "(centres undefined)", "Potency": "active: 8.91 µM"},
      {"smiles": "Cc1[nH]nc2c1C(Cc1ccccc1)C(C#N)=C(N)O2", "note": "(centres undefined)", "activity, negative = inhibition": "inactive: -6.67%"},
      {"smiles": "Cc1cccc(OCCC(=O)Nc2ccc(C)c(S(=O)(=O)N3CCCCC3)c2)c1", "Potency": "inconclusive [inhibitor, single point]"},
      {"smiles": "C=CCn1c(Cc2cccs2)nnc1SC/C=C/c1ccccc1", "Potency": "inconclusive [inhibitor, single point]"},
      {"smiles": "COC(=O)c1ccc(Cn2nnc3ccccc32)cc1", "activity, negative = inhibition": "inactive: 0.52%"},
      {"smiles": "Cc1ccc2nsnc2c1S(=O)(=O)NCc1cccnc1", "Potency": "inconclusive [inhibitor, single point]"},
      {"smiles": "S=c1[nH]nc(C2CCCCC2)n1/N=C/c1ccc(Br)cc1", "Potency": "inconclusive [inhibitor, full curve]"},
      {"smiles": "COc1cccc(CN2C(=O)c3cccc(N)c3C2=O)c1", "Potency": "inconclusive [activator, single point]"},
      {"smiles": "Cc1csc(SCC(=O)Nc2sccc2C#N)n1", "Potency": "inconclusive [inhibitor, single point]"},
      {"smiles": "NC(=O)CCn1c2ccccc2c2ccccc21", "activity, negative = inhibition": "inactive: -3.39%"},
      {"smiles": "CCCC1CCC(C(=O)Nn2c(C)nc3ccccc3c2=O)CC1", "note": "(centres undefined)", "activity, negative = inhibition": "inactive: -10.5%"},
      {"smiles": "Cc1ccccc1NC(=O)/C=C/c1ccc([N+](=O)[O-])s1", "Potency": "active: 3.16 µM"},
      {"smiles": "CC(=O)N1c2ccc(S(=O)(=O)NCCC(=O)Nc3ccc(OC(F)(F)F)cc3)cc2CC1C", "note": "(centres undefined)", "Potency": "inconclusive [inhibitor, single point]"},
      {"smiles": "Cc1cc(C(=O)NCCc2ccc(S(N)(=O)=O)cc2)no1", "activity, negative = inhibition": "inactive: -2.35%"},
      {"smiles": "COc1ccc2c(c1)c1ncn(Cc3ccco3)c(=O)c1n2C", "Potency": "inconclusive [inhibitor, single point]"},
      {"smiles": "O=C(NC(=S)Nc1ccccc1N1CCOCC1)c1ccc([N+](=O)[O-])cc1", "Potency": "inconclusive [inhibitor, single point]"},
      {"smiles": "Cc1ccc2oc(-c3ccccc3)nc2c1", "Potency": "inconclusive [inhibitor, single point]"},
      {"smiles": "Cc1cccc(-n2c(C)nc3cc(C(=O)N4CCOCC4)ccc32)c1", "Potency": "inconclusive [inhibitor, single point]"}
    ]}
  ]
}
